The supplement of paper PMC11417369
The other results are listed elsewhere or left out.

Test system: PF3D7_0420300 AP2 domain 1 (GST-tagged)
Test: gcPBM binding intensity (ln(normalized median fluorescence intensity)); higher = stronger DNA binding
Outline: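 In this array assay, P. falciparum DNA-binding domains with a GST tag, expressed in E. coli, were applied for 1 h to primer-extended double-stranded 36-bp intergenic genomic probes and negative controls on an Agilent 4 × 180k array. Bound protein was visualised with Alexa488 anti-GST antibody at 488 nm. Binding intensity is the highest Masliner-normalised natural-log median intensity across replicate spots of either probe orientation.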

Row | Sequence | gcPBM binding intensity (ln)
1 | TATTTGTAATATTATACACACATTATGTATTACAAA [CACACA_site3386] | 9.37
2 | TTTTGTATATTATATGTACACACAATAAGTTAATAT [CACACA_site8207] | 9.52
3 | TATGAACTTTTGGGGGTGCCTTAAAATGTATATTCT | 9.48
4 | ATATATATATAAAGCAGTACACACATTTATTTTAGA [XGTACX_site7226] | 9.57
5 | TCCCAATTTATTATGTGTACTTATTATATACATATA [XGTACX_site4033] | 9.44
6 | TATCAAAGTAGAAGAGATCGATGTCATATTGTGATG [GTGCAC_negctrl_site42] | 9.3
7 | TTATATTTCAATTAAACATGCATTTTTGTGTAGCAC [TGCATGCA_site214] | 8.93
8 | TCATATAGATTATACACACACATATATAGATATATA [CACACA_site6587] | 9.69
9 | TTATATATTTTATTATTTATAATCTTTTTTTTATTT [CACACA_negctrl_site112] | 9.21
10 | CAAAAGCGATACGGCACACATTTCCTGTTTAAATGA [CACACA_site5519] | 9.26
11 | TTAATTTTTAGAAGAACACACACATATATATTATGA [CACACA_site7969] | 9.59
12 | AAATTGATTATAAATTGTACAAGAACATACAACCTT [XGTACX_site5986] | 9.32
13 | TGTTCTCTTCTTTTTTATTTTCCAAAGTAATAAGTT [TGCATGCA_negctrl_site424] | 9.28
14 | TATATATATTTATATGCATGTAATATATTTGTATTG [TGCATGCA_site323] | 9.27
15 | AATTATTTTATGAAAAGTACACATTGTTTTAATTCT [XGTACX_site4506] | 9.11
16 | TAAATAAGTATTACTAGTACACACAAGTTGTTAATC [XGTACX_site7074] | 9.47
17 | AGAAAAAAGAGGGATACACACAAACATATATATATA [CACACA_site5269] | 9.96
18 | CATAAATCAGCCATAACACACATACATAAATACATA [CACACA_site4380] | 9.67
19 | TTAATTATAATTATATGTACGAACTTTTTTTTTTTT [XGTACX_site6586] | 9.14

Row | Sequence | gcPBM binding intensity (ln)
20 | CATTTTTTAATAATAGCACACAGGACATACAAAACA [CACACA_site1245] | 9.63
21 | ACAGTATCTGGTAGCTGTACGAGTCGTAGAGTGTAG [XGTACX_site2011] | 9.19
22 | AAAATATAAAGTATTTGTACATAATATATTTTTAAA [XGTACX_site3494] | 9.16
23 | AATATATAAATAAATATATAAATAAATAATTGAAGC [CACACA_negctrl_site348] | 9.63
24 | TTCATTAATGTGTAATGTACTTGTAATATGGGATTA [XGTACX_site3903] | 9.19
25 | TGCTCATTCCTGTCATGTACATATTATATATATATA [XGTACX_site6890] | 9.64
26 | GAAAATATGTAATAGTGTACACATATATATGTATAT [XGTACX_site306] | 9.33
27 | ATATGAACATTTACATGTACATGTAAATGTAACACT [XGTACX_site4574] | 9.29
28 | CACAAAAAGAAACACACACACATATATATATATATA [CACACA_site999] | 9.73
29 | ATTCTAAATAATAAGAGTACAAATAATATGGAGAAG [XGTACX_site5209] | 9.35
30 | TTGTTTTTTTTTTCTATAAGCATAAAAATGATATAA [XGTACX_negctrl_site356] | 8.82
31 | TTTCTGTGTTTTGGTTGTACACACGCTACATTATAT [XGTACX_site5669] | 9.97
32 | TTTATTTATTATTAAAGTACTAAATCATATAATTAT [XGTACX_site5727] | 8.95
33 | AAATTAAAAAAATAATGTACATGTATTTATTATGTA [XGTACX_site2419] | 9.21
34 | TTTTATTTCTTTGCACCATTTTAAATACAAACAAAT [CACACA_negctrl_site1553] | 9.24
35 | TAAAACAATACTTTGTGCTTCTCTGGTTTTTTTTTT [GTGCAC_negctrl_site284] | 9.26
36 | GCTTTTAAAATAATTGGTACACATGTATAAATTCAA [XGTACX_site2327] | 9.05
37 | AGTATTCACTTAATATGTACATATTTATTATAAGAG [XGTACX_site3434] | 9.11
38 | TGGTATATAAAACACACACACATATGTATTTATATA [CACACA_site4665] | 9.73

Row | Sequence | gcPBM binding intensity (ln)
39 | TTTTGCCTTTCTACTTGTACTTAAAATATTATAATT [XGTACX_site5483] | 9.55
40 | ACTCCATAATATTGATGTACTATAATGCATTTATTT [XGTACX_site5562] | 9.59
41 | TTATAGAATTTATTTACACACAAACATTTATACTTT [CACACA_site7592] | 9.56
42 | TATTTATTTTCATATAGTACTTTTTTCAGGCATATA [XGTACX_site6691] | 9.09
43 | TTTATTTATGTTGAAACATGCAAAAAGTTATTTATA [TGCATGCA_site716] | 8.81
44 | TTCAAAAGCCGGATAACATGCAGTAGTAGAACAAAC [TGCATGCA_site413] | 9.7
45 | TATATATATATTTTAACACACACATATATATATTTA [CACACA_site8892] | 9.63
46 | ATGCTTTTTAAATGATTGCACTAGATTGTAATATGT [GTGCAC_site9666] | 9.24
47 | ATATATATATATTGCACACACAATTATTATTATTAT [CACACA_site2299] | 9.61
48 | TGTATGAAATATATTACACACATATAAAATCTATAT [CACACA_site6514] | 9.5
49 | TTTTTAATTTTTTGTTGTACATATAATATATTATTA [XGTACX_site4903] | 9.23
50 | TTGATGTTGGTAGGATGTACGGTACCGGTAAAGTTT [XGTACX_site7705] | 9.28
51 | AAGCTTCATTAATATACACACATATATGCGTATATT [CACACA_site3695] | 9.51
52 | TATATAATTATAAGAACACACATATATATATATATA [CACACA_site2472] | 9.19
53 | AAATTTGAAGAATATTGTACGCATAATAATTAAATA [XGTACX_site4300] | 9.23
54 | TTCTAACTTTTAAACACACAAATATAAATAAGTATA [CACACA_site7473] | 9.12
55 | GAACGTATCATGTGTACACACAAATTGTTTTTTTTT [CACACA_site2020] | 9.72
56 | AAATGAACAAGTGGCACACACACATTATAACTAATT [CACACA_site9048] | 9.92
